According to PubChem BioAssay AID686978 (National Center for Advancing Translational Sciences (NCATS), 2013):
The campaign covered roughly 420,000 compounds. About 64,000 (15%) were called active. The shares of active, inactive and inconclusive entries below differ from those in the screen. The call rests on the fitted dose curve; in most records, active means well fitted inhibition curve with a large enough effect; inconclusive means small, poorly fitted or top-dose-only effect; inactive means flat fitted curve, though single readings scatter. Potencies of inconclusive entries are left out as doubtful fits.

Assay: qHTS for Inhibitors of human tyrosyl-DNA phosphodiesterase 1 (TDP1): qHTS in cells in absence of CPT; further: nearly all actives have a fitted effect of over 55% in size
Conditions: DT40 Tdp1-/- hTDP1 cells, no CPT, ATP luminescence, 48 h; activity change, negative = growth inhibition: at 46.2 µM (top of the series) unless noted
In short: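 Compound effects on proliferation are scored in DT40 Tdp1-/-;hTDP1 cells in the absence of CPT. ATP levels (CellTiter-Glo luminescence) are recorded after a ≥48 hr, 37 °C incubation.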
On the % scale 0 is the no-effect control and ±100 the full control effect; potency means the concentration at half of the fitted maximal effect; tags describe the fitted curve by direction and shape.

SMILES | Potency | activity change, negative = growth inhibition
CC12CCC3C(CCC4CC(O)CCC43C)C1CC(O)C2 (configuration not stated) | inconclusive [inhibitor, partial curve] | 
Cc1ccc(C(=O)c2c(NC(=O)CSc3nnc(N)s3)sc3c2CCCC3)cc1 | inconclusive [inhibitor, single point] | 
C=CCc1c(OC)ccc2c1c(S(=O)(=O)c1ccc(C)cc1)cn2COC | inconclusive [inhibitor, single point] | 
CCOc1ccc(OCCSc2nc(-c3ccccc3)cc(=O)[nH]2)cc1 | inconclusive [inhibitor, single point] | 
COc1ccc(S(=O)(=O)N(C(C)=O)c2ccc(OC(C)=O)c3ccccc23)cc1[N+](=O)[O-] | active: 3.66 µM | 
Cc1ccc(C)c(N2CCN(C(=O)c3ccc4nc(N5CCOCC5)sc4c3)CC2)c1 | active: 13 µM | 
Cc1occc1C(=O)Nc1nnc(C(F)(F)F)s1 |  | inactive: -23.2%
COc1ccc(NC(=O)C2CC(=O)N(C)C(=Nc3ccc4c(c3)OCO4)S2)cc1 (configuration not stated) |  | inconclusive: -31.5% [inhibitor]
COc1ccc(N(CC(=O)N/N=C/c2cccnc2)S(=O)(=O)c2ccccc2)c(OC)c1 | inconclusive [inhibitor, single point] | 
COc1ccccc1N1CCN(C(=O)c2cc3cc(C)ccc3[nH]2)CC1 | inconclusive [inhibitor, single point] | 
O=C(CNC(=O)Cc1ccccc1)NCC(=O)OCC(=O)c1ccc(Cl)cc1 |  | inactive: -2.21%
COc1ccc(-c2csc(N(CC3CCCO3)C(=O)c3cccs3)n2)cc1 (configuration not stated) | inconclusive [inhibitor, single point] | 
c1nc(N2CCC3(CC2)OCCO3)c2[nH]cnc2n1 |  | inactive: -22.7%
O=C(CCN1C(=O)/C(=C/c2ccccc2)SC1=S)NCCc1ccc(O)cc1 | inconclusive [inhibitor, partial curve] | 
CCOc1ccc(Nc2cc(C)nc(-n3nc(C)cc3C)n2)cc1 | active: 0.58 µM | 
O=C(Cn1nnc(-c2ccccc2NC(=O)c2ccccc2)n1)Nc1ccc2c(c1)OCCO2 |  | inactive: -25.3%
O=C(CCCN1C(=O)/C(=C\c2ccccc2)SC1=S)Nc1ccc(C(=O)O)cc1 |  | inactive: -25.8%
CCOC(=O)Cn1cncc1-c1ccc([N+](=O)[O-])cc1 | inconclusive [inhibitor, single point] | 
NS(=O)(=O)c1ccc(CCNC(=O)c2cc(=O)[nH]c3ccccc23)cc1 |  | inactive: -9.18%
Cc1ccc(N2CCN(c3ccc([N+](=O)[O-])cn3)CC2)c(C)c1 | inconclusive [inhibitor, partial curve] | 
O=[N+]([O-])c1ccccc1-c1ccc(C(=S)N2CCN(c3ccccc3)CC2)o1 | inconclusive [inhibitor, single point] | 
COCCOC(=O)c1sc2nc[nH]c(=O)c2c1C |  | inactive: -7.73%
Cn1c(=O)c2c(ncn2CC(=O)N2CCN(c3ccc([N+](=O)[O-])cc3)CC2)n(C)c1=O | inconclusive [inhibitor, partial curve, poor fit] | 
Cc1ccc2c(c1)[C@H]1[C@H](CO2)[C@H](c2ccccc2)[C@]2(C)C(=O)Nc3cc(Cl)ccc3C(=O)N12 | active: 20.6 µM | 

SMILES | Potency | activity change, negative = growth inhibition
CCn1c(=S)[nH]c2nc3c(cc2c1=O)CCCC3 | inconclusive [inhibitor, partial curve] | 
CC(C)(C)c1cc(C(=O)NNS(=O)(=O)c2ccccc2)n[nH]1 |  | inconclusive: -34.5% [inhibitor]
CCOc1ccc(NC(=O)CN2CCN(CC(=O)Nc3ccccc3OCC)CC2)cc1 | active: 20.6 µM | 
CCC(C)(C)c1ccc(CC(C)CN2C[C@@H](C)O[C@@H](C)C2)cc1 (some centres not stated) | inconclusive [inhibitor, single point] | 
Cc1nc2ccccc2c(=O)n1/N=C/c1cn[nH]c1-c1ccccc1 | active: 14.6 µM | 
NC(=O)c1nccc2ccccc12 | inconclusive [inhibitor, partial curve] | 
CCC(=O)NC(=S)NNC(=O)c1ccc([N+](=O)[O-])cc1 | active: 18.4 µM | 
CC12C=CC(=O)C=C1C(F)CC1C3CCC(O)(C(=O)CO)C3(C)CC(O)C12F (configuration not stated) | inconclusive [inhibitor, single point] | 
O=C(CSCc1c(F)cccc1Cl)NCCc1ccccc1 |  | inactive: -11.6%
CCOc1cc(C(=O)N2CCC(c3ccncc3)CC2)cc(OCC)c1OCC |  | inactive: -11.4%
Cc1nn(Cc2ccc(C(=O)Nc3nccs3)cc2)c(C)c1Cl | inconclusive [inhibitor, partial curve] | 
COc1ccc(Cl)cc1NC(=O)CSc1nc(-c2ccco2)cc(C(F)(F)F)n1 | active: 16.4 µM | 
COc1ccc(CCNC(=O)CCn2c(=O)c3cccn3c3cccnc32)cc1OC | inconclusive [inhibitor, single point] | 
CCc1ccccc1Nc1nc2ccccc2n2cnnc12 | inconclusive [inhibitor, single point] | 
COc1ccc(C2(CNC(=O)CCC(=O)O)CCCC2)cc1OC |  | inactive: -11.3%
NC(=S)N/N=C/c1ccc(-c2ccc([N+](=O)[O-])cc2)o1 | inconclusive [inhibitor, single point] | 
Cc1ccc(NC(=S)Nc2ccc(C(C)C)cc2)cc1S(=O)(=O)N1CCCCCC1 | active: 16.4 µM | 
CS(=O)(=O)Cc1ccc(C(=O)Nc2cccc(-c3nc4ccccc4[nH]3)c2)cc1 | active: 13 µM | 
COCCn1c(=N)c(C(=O)NCCc2ccc(OC)cc2)cc2c(=O)n3cccc(C)c3nc21 | active: 29.1 µM | 
CSc1ncnc2c1ncn2CCCNCCCN1CCCC1=O |  | inactive: 1.64%
CC(C)Sc1ncnc2[nH]ncc12 | inconclusive [inhibitor, single point] | 
O=C(NCc1ccccc1)c1ccc(CS(=O)Cc2cccc(Cl)c2)o1 (configuration not stated) | inconclusive [inhibitor, single point] | 
CCOC(=O)c1ccc(NC(=O)COC(=O)c2cn(CC)c3nc(C)ccc3c2=O)cc1 | inconclusive [inhibitor, single point] | 
